In PubChem BioAssay AID540317 (National Center for Advancing Translational Sciences (NCATS), 2011):
Among all 390,000 compounds or so, about 2,200 (0.56%) were called active. Inconclusive means that the source gave no clear call. Such entries were picked first, then a sample of the others. Calls come from the whole dose curve; as a rule, active = well fitted inhibition curve with a large enough effect; inconclusive = small, poorly fitted or top-dose-only effect; inactive = no such curve, though single readings can be large or run the other way. Potencies beside an inconclusive call are fits to weak or partial responses and may not hold up.
Note: nearly all actives have a fitted effect of over 70% in size.
Potency is the fitted concentration of half-maximal effect; tags give direction and shape of the fitted curve.

Each compound was assayed against Chromobox protein homolog 1 (Homo sapiens) (UniProt P83916) (assay: HTS for Inhibitors of HP1-beta Chromodomain Interactions with Methylated Histone Tails). Details: AlphaScreen HP1-beta / biotin-H3K9me3 peptide binding; series mostly up to 114 µM; activity change, negative = inhibition: at the top concentration.
Sequence of UniProt P83916 (P83916 whole entry, looked up): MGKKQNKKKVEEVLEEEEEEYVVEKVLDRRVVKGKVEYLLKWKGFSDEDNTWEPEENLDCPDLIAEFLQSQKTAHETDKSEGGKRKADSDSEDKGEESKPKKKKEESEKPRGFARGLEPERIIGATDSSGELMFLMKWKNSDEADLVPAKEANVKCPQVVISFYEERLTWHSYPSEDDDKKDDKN
How it was run: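 AlphaScreen: HP1-beta (50 nM) preformed 30 min with biotin-H3(1-18)K9me3 peptide (50 nM) in PBS pH 7.4, 0.01% Tween-20. Compound added for 30 min at RT, then streptavidin donor/nickel chelate acceptor beads (10 ug/mL) for 30 min.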
With N#C/C(=C/c1ccc(O)c(O)c1)C(=O)NCc1ccc(Cl)cc1 the Potency was active: 28.2 µM.
With COc1cc(OC)c(OC)cc1CN(C)CCc1ccccn1 the Potency was inconclusive: 22.4 µM [inhibitor, full curve, poor fit].
With COc1cc(C(=O)N2CCN(Cc3ccccn3)CC2)cc(OC)c1OC the Potency was inconclusive: 17.8 µM [inhibitor, full curve].
In the case of CCOc1ccc(C(=O)Nc2ccc(N3CCCC3)cc2)cc1, the “activity change, negative = inhibition” value was inactive: -27.8%.
In the case of COC(=O)c1ccc2c(=O)n(CCN3CCOCC3)c(SCC(=O)Nc3ccc(OC)cc3OC)nc2c1, the Potency was inconclusive: 35.5 µM [inhibitor, full curve].
For CC1CCCCN1C(=O)CNCc1ccc(F)cc1 (stereo not drawn), the Potency was inconclusive: 56.2 µM [inhibitor, partial curve, poor fit].
Cc1c(Cc2ccc3c(c2)OCO3)sc(NC(=O)c2cccc3ccccc23)c1C(N)=O was tested, and the Potency was inconclusive: 5.01 µM [inhibitor, full curve, poor fit].
In the case of Cc1ccc(C=Nc2ccc(N(C)C)cc2)o1, the Potency was inconclusive: 70.8 µM [inhibitor, single point].
In the case of Brc1ccccc1OCCCN1CCCCCC1, the Potency was inconclusive: 70.8 µM [inhibitor, single point].
In the case of N#Cc1nc(Cc2cccc3ccccc23)oc1NCc1ccc2c(c1)OCO2, the Potency was inconclusive: 14.1 µM [inhibitor, partial curve, poor fit].
With O=C(c1ccncc1)N1CCN(C2CCCCC2)CC1 the Potency was inconclusive: 50.1 µM [inhibitor, partial curve, poor fit].
With CC(OC(=O)c1ccc(Cl)nc1)C(=O)N1CCc2ccccc21 (stereo not drawn) the “activity change, negative = inhibition” value was inactive: 5.17%.
With Cc1ccc(C)c(NC(=O)Cn2cc(S(=O)(=O)c3ccc(F)cc3)c(=O)c3cc(F)ccc32)c1 the “activity change, negative = inhibition” value was inactive: 39.2%.
With CC(=O)c1c(C)[nH]c(C(=O)OCc2csc(CC(=O)Nc3ccccc3C)n2)c1C the Potency was inconclusive: 31.6 µM [inhibitor, single point].
With Cc1ccc(C(C#N)c2ccc3c(C(F)(F)F)cc(C(F)(F)F)nc3n2)cc1 (stereo not drawn) the Potency was active: 14.1 µM.
In the case of Cc1cccc2cc(CN(Cc3ccc(F)cc3)C(=O)N3CCOCC3)c3nnnn3c12, the Potency was inconclusive: 39.8 µM [inhibitor, single point].
Cc1ccc(Cl)c(OC(=O)c2ccc(N3CCOCC3)c([N+](=O)[O-])c2)c1 was tested, and the Potency was inconclusive: 39.8 µM [inhibitor, partial curve].
For COc1ccc(CN2CCN(C(=O)c3ccc(F)cc3)CC2)c(OC)c1, the Potency was inconclusive: 14.1 µM [inhibitor, partial curve, poor fit].
With O=C(O)CN1C(=O)/C(=C\c2cccc(OCc3ccc(Cl)cc3Cl)c2)SC1=S the Potency was inconclusive: 25.1 µM [inhibitor, full curve].
With CCOc1ccc(CNC(=O)c2ccc(Sc3ccc(C)cc3)c(N)c2)cc1OC the “activity change, negative = inhibition” value was inactive: 19.4%.
With COCCN(C)Cc1cn(-c2ccc(F)cc2F)nc1-c1ccccc1C the “activity change, negative = inhibition” value was inactive: 27.5%.
For c1ccc(CCc2nn3c(Cn4nnc5ccccc54)nnc3s2)cc1, the Potency was inconclusive: 35.5 µM [inhibitor, partial curve, poor fit].
In the case of Cc1cccc2sc(N(CCCN(C)C)C(=O)c3sc4ccccc4c3Cl)nc12, the Potency was inconclusive: 17.8 µM [inhibitor, partial curve, poor fit].
CC1=C(C(=O)Nc2ccc(C)cc2C)C(c2cc(Br)ccc2F)n2ncc(C(=O)Nc3ccc(C)cc3)c2N1 (stereo not drawn) was tested, and the “activity change, negative = inhibition” value was inactive: 21.1%.
With c1ccc2oc(-c3csc(NCC4CCCO4)n3)cc2c1 (stereo not drawn) the Potency was inconclusive: 70.8 µM [inhibitor, partial curve].
In the case of O=C(CSc1nc2ccccc2o1)N/N=C/c1ccc(O)c(O)c1, the Potency was inconclusive: 12.6 µM [inhibitor, full curve, poor fit].
CCOc1c(C)cc(S(=O)(=O)NCc2ccccn2)c(C)c1C was tested, and the “activity change, negative = inhibition” value was inactive: 27.2%.
With COc1ccc(C2N(c3ccccc3)C(=O)C2(F)F)cc1OC (stereo not drawn) the “activity change, negative = inhibition” value was inactive: 18.8%.
For Nc1nnc(SC2CC(=O)N(c3ccccc3)C2=O)s1 (stereo not drawn), the Potency was inconclusive: 79.4 µM [inhibitor, single point].
CC(NC(=O)/C=C/c1cnc2ccccc2n1)C12CC3CC(CC(C3)C1)C2 (stereo not drawn) was tested, and the Potency was inconclusive: 28.2 µM [inhibitor, single point].
Cc1ccc(OCCNc2cc(N3CCN(CCO)CC3)ccc2[N+](=O)[O-])cc1C was tested, and the Potency was inconclusive: 20 µM [inhibitor, full curve, poor fit].
COc1cccc(CNC(=O)CCC2CCCN(C(=O)c3cccc4c(C)c(C)[nH]c34)C2)c1 (stereo not drawn) was tested, and the Potency was inconclusive: 70.8 µM [inhibitor, partial curve].
For COc1ccc(Cl)cc1NC(=O)COC(=O)CC(C)(C)CC1=NS(=O)(=O)c2ccccc2N1, the “activity change, negative = inhibition” value was inactive: 17%.
COC(=O)c1ccccc1NC(=O)CN(c1ccc(Cl)cc1)S(=O)(=O)c1ccc(OC)cc1 was tested, and the “activity change, negative = inhibition” value was inactive: 17.9%.
In the case of Cc1ccccc1CN1CCN(C(=O)CC(C)C)CC1, the Potency was inconclusive: 14.1 µM [inhibitor, full curve, poor fit].
COc1ccc(C(=O)CSc2nnc(-c3ccco3)c(-c3ccco3)n2)cc1 was tested, and the Potency was inconclusive: 28.2 µM [inhibitor, partial curve].
COc1ccccc1-n1c(-c2ccccc2)c[nH]c1=S was tested, and the “activity change, negative = inhibition” value was inactive: 8.93%.
For O=C(CCc1ccc(O)c(O)c1)N/N=C/c1ccc2c(c1)OCO2, the Potency was inconclusive: 50.1 µM [inhibitor, partial curve].
CCOc1ccc(CCNC(=O)Cn2ccc3cc(S(=O)(=O)N4CCCCCC4)ccc32)cc1 was tested, and the “activity change, negative = inhibition” value was inactive: 30.2%.
In the case of CC1=C(C(=O)Nc2ccc(F)cc2)C(c2ccc(N(C)C)cc2)NC(=O)N1 (stereo not drawn), the “activity change, negative = inhibition” value was inactive: 39.8%.
For COc1ccc(-c2csc(Nc3ccccc3)n2)cc1, the Potency was inconclusive: 20 µM [inhibitor, full curve].
For COc1ccccc1/C=C/C=N/n1c(C2CCCCC2)n[nH]c1=S, the Potency was inconclusive: 17.8 µM [inhibitor, full curve].
With O=C1CCCCC1Sc1ccc(Cl)cc1[N+](=O)[O-] (stereo not drawn) the Potency was inconclusive: 56.2 µM [inhibitor, partial curve, poor fit].
In the case of O=c1c2ccccc2nc(-c2ccc(Cl)cc2)n1CCCCOc1ccc(F)cc1, the “activity change, negative = inhibition” value was inactive: 94.1%.
In the case of Cc1ccc(N=Nc2c(N)[nH]n3c(=O)cc(-c4ccccc4)nc23)cc1, the Potency was inconclusive: 44.7 µM [inhibitor, partial curve].
For Cc1[nH]n(C(N)=S)c(=O)c1N=Nc1ccc([N+](=O)[O-])cc1Cl, the Potency was inconclusive: 15.8 µM [inhibitor, full curve].
With CC(=O)N1CCC(=NNc2nc3ccccc3[nH]2)CC1 the Potency was inconclusive: 35.5 µM [inhibitor, partial curve].
With c1ccc2ncc(-n3cnnn3)cc2c1 the Potency was inconclusive: 89.1 µM [inhibitor, single point].
In the case of CN(C)C(=O)c1ccc(NC(=O)c2cc(-c3ccco3)nc3ccccc23)cc1, the Potency was inconclusive: 56.2 µM [inhibitor, partial curve, poor fit].
In the case of O=C(CN1C(=O)c2ccccc2C1=O)Nc1sc2c(c1C(=O)NCc1ccco1)CCCC2, the Potency was inconclusive: 6.31 µM [inhibitor, full curve].
With CCOc1ccc(CNC(=O)CN2C(=O)CSc3c2c(C)nn3-c2ccccc2)cc1 the “activity change, negative = inhibition” value was inactive: 56.8%.
In the case of C=CCn1c(O)c(C2=c3ccccc3=NC2=O)c2ccccc21, the Potency was inconclusive: 11.2 µM [inhibitor, full curve].
COC(=O)c1ccccc1NC(=O)CSc1c2c(nc3ccc(Cl)cc13)CCCC2 was tested, and the “activity change, negative = inhibition” value was inactive: 24.2%.
CN(C)/C=C(/C(=O)c1ccc(Cl)cc1Cl)S(=O)(=O)c1ccc(Cl)cc1 was tested, and the Potency was inconclusive: 7.08 µM [inhibitor, full curve].
CCOC(=O)N1CCN(CCC(=O)Nc2cc(C)ccc2C)CC1 was tested, and the Potency was inconclusive: 39.8 µM [inhibitor, single point].
For O=C(NC(=S)Nc1ccc(N2CCOCC2)c(Cl)c1)c1cncc(Br)c1, the Potency was inconclusive: 28.2 µM [inhibitor, partial curve, poor fit].
With O=C(NC(=S)Nc1ccc(N2CCOCC2)cc1)c1ccccc1 the Potency was inconclusive: 31.6 µM [inhibitor, partial curve, poor fit].
Cc1[nH]nc2c1C(c1cccnc1)N(c1ccc(Br)cc1)C2=O (stereo not drawn) was tested, and the “activity change, negative = inhibition” value was inactive: 4.67%.
In the case of COc1cc(/C=N/Nc2ccccc2C(F)(F)F)ccc1O, the Potency was inconclusive: 50.1 µM [inhibitor, partial curve, poor fit].
In the case of COc1ccc(/C=C2/SC(=S)N(CCCC(=O)N3CCN(C)CC3)C2=O)cc1, the Potency was inconclusive: 56.2 µM [inhibitor, single point].
In the case of Cc1ccc(S(=O)(=O)N2CCN(C(=O)COC(=O)CCCOc3ccccc3)CC2)c(C)c1, the “activity change, negative = inhibition” value was inactive: 29.5%.
In the case of COCCn1c(=S)[nH]c2cc(C(=O)N3CCc4ccccc43)ccc2c1=O, the “activity change, negative = inhibition” value was inactive: 18.6%.
For CS(=O)(=O)c1ccc2nc(NC(=O)c3ccc(N4C(=O)CCC4=O)cc3)sc2c1, the “activity change, negative = inhibition” value was inactive: 43.4%.
In the case of O=C(c1ccc(Cl)c(S(=O)(=O)N2CCCC2)c1)N1CCN(c2ccc(F)cc2)CC1, the “activity change, negative = inhibition” value was inactive: -14%.
In the case of COc1ccc(N2CCN(C(=O)c3cccnc3SCc3cccc(Br)c3)CC2)cc1, the Potency was inconclusive: 50.1 µM [inhibitor, partial curve, poor fit].
With CCN1CCN(c2ccc(S(=O)(=O)N3CCCCC3)cc2NC(=O)c2ccc([N+](=O)[O-])o2)CC1 the Potency was inconclusive: 70.8 µM [inhibitor, partial curve, poor fit].
With O=C1CC(c2ccco2)Sc2ccccc2N1 (stereo not drawn) the “activity change, negative = inhibition” value was inactive: 19.3%.
C=CCc1ccc(OCCCCN2CC(C)OC(C)C2)c(OC)c1 (stereo not drawn) was tested, and the Potency was inconclusive: 17.8 µM [inhibitor, full curve].
